The supplement of paper PMC12632987
Over roughly 4,500 sequences, “median log2 fold change of GCK-ALFA target abundance (FLAG IP / Myc IP barcode read proportion)” has its median near 0.078; the lowest 2% begin near -0.6. The list shows a part of the results.

B1: GBRAP_128_3529 (protein)
chain: SVEEAKERAREVVERIKNSDEEEARKITEEFLEELKEWSDEEVEAAVEVLEELKPELSAEKLEVVADTIRERRDEFTPEKQNHLAGLEVELLNEAEEKEE
B2: GBRAP_160_4286 (protein)
chain: MEELEKLKKEIKEIAEEALEMMKGQTREERANIVRVAGGEVVLLLSENPNISDETEDKVAEIWDEVAEYILANPDLTDEEIEELINKALEEVKKLIEEEM
B3: GBRAP_184_5265 (protein)
chain: KVLERTIKAENVEELIAKMEEVRKEALATGADVIILLEVEKLTKEMIDALFAQLKALRDAGYKGKITVGIDADLTEEMIDYVIKKADEAGVNVVLAISEE
B4: GBRAP_11_2770 (protein)
chain: KKEELKKAAELAEKAAEAVKQLLEKGVDDEELRKKIEELLEEITKLTEKYGDEDMKKLVEIAKELLKKLKEDPENAEQYAEELRATFDVLSGQFLLEAEE
B5: GBRAP_125_3071 (protein)
chain: SEEETLENLALIAKALGFSEGDVAEAVELARASSVKQTLIAILMAEGAEETADAVEKLTEEQAKEVLKKLAEELKANPDLSKEEVIELLKKLAEEAIAAA
B6: GBRAP_125_3112 (protein)
chain: NMEEILEALRIILKALGFDEEEIEEAVRLAREYGIKGTMIAAALALGWEEVAELLEKLSEEEVKEALLRTAEKIKENPELTPEEVKELLKEVLKEILEKK
B7: GBRAP_160_4708 (protein)
chain: SETAEKLKEYVDEEFEELKEMIEGETAEQRATIARGAFGEIIMELIENEEASDELEDEVDEIGDELVATILANPDLTDEEVKALIDEAREKIKEAIEKHL
B8: GBRAP_160_4251 (protein)
chain: EEELERLREEIREEAEVLLEALEESDKADWPAFARAMAGDIVQLVIDNPNASEETIEEVDRLAEELAAELVAAADASPEERRALLERGVERIVETVEKGL
B9: GBRAP_128_3578 (protein)
chain: SVEEVKAEVRALLAAMKTADEATQKAIADEIATRFIKLSLEEQKAAAETIKELLPELTAEQLEILADAFRKARPKGTPEAANLLADVQVEALNAALEKEE
B10: GBRAP_160_4727 (protein)
chain: SERIEAFVEEFREEFLETIDATENESKEEANAMFEGTAGDILMDAFEEPFLSDEMEDVVAEILDELVAELKANWDASKEEKKAIVDEHMERLLEKLKELE
B11: GBRAP_52_6053 (protein)
chain: MREELRAKVDELVALMRAGDEDGARAMLDEIAATLNEEELKLFAEELAERAAAAAPEDFDAMARLAEMFEDALLAAGVDEAFADEAEALIYAALYEAELR
B12: GBRAP_160_4102 (protein)
chain: MEKIEELIKEIDELVKETKEMIKGESIEQRAIIVEGTGGEVIMLLFESGVVSEEVEDFADEEWDKLVETIRSNPDLTYEEIVKLIDEVAEKIKKKIKEDG
B13: GBRAP_128_3520 (protein)
chain: SVEEAIKEAEEVMEKIKNSSVEEAYKIAKEFLKKLKEWSLEEVEAAVEKMEKLLPKLSAEKLEAVADAIEELRGEFDPEKARLLAGLQVDALNEAEELEE
B14: GBRAP_160_4039 (protein)
chain: SEKYEKLAKFAKEVFEEAKKLIEGQTVEQAAVVFAVAMGQIILEAEELGIDDDELHDLIDKLEDEGVAYLLAHPDLTEEEIKKLIEEAEKKILEAIEKAK
B15: GBRAP_52_5981 (protein)
chain: MEEEMRKLAEEIVALVKAGKLEEARALMERLAAELSEEELEMIAEELARLAKTASPEEIDAIVEAAEMLRDVWLEAGRDEAVADAGLARVAAAAYAALQA
B16: GBRAP_160_4812 (protein)
chain: MEKVEEKLKEAEKDLLDTAEASKDLPVADRAKLLEAEGYTNILDLEEELNLSDETVDKLDKIVDDLVATLLANPDLTDEEVLALVKKAAEEIKEVVLKEA
B17: GBRAP_11_2654 (protein)
chain: KKEALLRAAELAEEAAKAVQELIEKGVDDKELQAKAEELLEKLLELAKKELDEASRHDVEVAYELWKEFKADKANREQLAKELLAALRVLAGNYLLEADE
B18: GBRAP_128_3171 (protein)
chain: SSEEIVKKVEELVNAMLTASPEEQRKLAREIVDIFGEADDETAEKIAEVIIKMAPKFSEEQLEILDDVIRERMPELTPEKQELAAEVMVELGEQILELEE
B19: GBRAP_184_5179 (protein)
chain: MVKEFEIEIENVEEAKKKMEEIKEEVKGKKAELYLIVKAKKFTVEIVEAIMEILKEMKEEGYVTKVTLHLDGEMSEEVIDKAVELAKEAGVNLVLALDEE
B20: GBRAP_160_4781 (protein)
chain: SEKKEKLKKAIEEAAKEIKEAIDTESPEQVLTVVRGEGGDILQEAEELGIDNEEALEGLDKGIKELEAAMKAAADASPEEKKAIVDKAKEKMIETLDKLT
B21: GBRAP_128_3274 (protein)
chain: MNEEIVARARAFVDRLKAADDEEARAIAREFAEWLGSISVEDAEQAVDVIEERLGELSARQLEILADVLEEQRPLFSPEKANLVADLQVEALNEAEEKEE
B22: GBRAP_160_4149 (protein)
chain: SEELKKLIKEIKEITEEAIKLMEGETPEEAKVIAKVALGEIVMLVESNEEVSEETEEKVGEIADEAEEYLDENPDLTVEEIKELLKKAGEEVIKIIEEEL
B23: GBRAP_11_2842 (protein)
chain: SRAALERLAARAEEIAAELEALIASGAPSEAELEALLARVEALLAEVKAHASAASQKIAAIALEEVRQAIADPENRQEYLRNALAAVRVLAGDLLLEIEE
B24: GBRAP_83_6952 (protein)
chain: KEKIVVAANDDNVEKAVKIAADLAKTGKYEVTLEFIGTVEAARKLIKYVEKALKEGVTFDVEVLLEGATEEEAEEIKAELEAVAKKAGKDVKVEVHVIEP
B25: GBRAP_128_3411 (protein)
chain: STEEKVKKAEELLEKMLTADEEEQKKLAEELAELLKESDLETVEKIVEVILKMLPKFTAEQLDILADVLRERLSEFSPEKQELVSEVIVEALNLAEELEE
B26: GBRAP_184_5042 (protein)
chain: KIFEATIKFENLEELKEKLEELEEEVKDHKGELIVHVEAPKFTKEMVETLMERLKEILEKGYAKSVTVGLDGEMSEEVVDLAVELAKKAGINLTLALSEE
B27: GBRAP_52_6080 (protein)
chain: MKEEIEKVAEEIVKAIAAGDKEGALEIIRKAIKEFSVEEIKEMLELAARKVAELGEEQHELFVEVLDEAYDLMLEEGISEEDALLIVGAAEAALAKAVAA
B28: GBRAP_125_2998 (protein)
chain: SEEELAEALAIILKALGYSEDEIKEAIEIARKHGIKQTMIAIALAEGAEELAELLEKLTEEEAAEIVKEVAKALKENPDMTPEEVLEKMKELAKKALEKK
B29: GBRAP_160_4688 (protein)
chain: SEKVEKAEKFIEEEFEEVVEIHEEVTKEELAAAVRVAFGNIILELEELGLLTDEIGEIIREEEDKIVKYILENPNITKEELKKMLEEAKEKIVKKLKEES

Target: GABARAP, O95166
Sequence (O95166 whole entry, the tested form may be a part): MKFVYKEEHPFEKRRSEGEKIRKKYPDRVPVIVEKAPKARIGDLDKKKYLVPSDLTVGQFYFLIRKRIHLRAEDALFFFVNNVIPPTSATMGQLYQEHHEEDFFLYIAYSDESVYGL
Experiment: median log2 fold change of GCK-ALFA target abundance (FLAG IP / Myc IP barcode read proportion) (log2 ratio); each designed protein is fused to an ALFA-tag nanobody in HEK293 cells to bring the named protein to FLAG-tagged glucokinase (GCK); Myc marks an untargeted standard; higher = target protein stabilised (more abundant)
Conditions: target protein: 3xFLAG-MCP-GCK-ALFA reporter; HEK293 landing pad (RPLP)
Procedure, shortened: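 An ALFA-nanobody-fused binder library was recombined into HEK293 landing-pad cells and induced with 2 μg mL^−1 doxycycline. Cells were transfected with a plasmid expressing a FLAG-tagged target and a Myc-tagged standard. After 48 h, lysates underwent anti-FLAG and anti-Myc immunoprecipitation, and circular RNA barcodes were reverse transcribed, amplified and sequenced. Target abundance is the per-binder median log2 ratio of FLAG to Myc barcode read proportions. Barcodes needed ≥10^−7 proportion in both replicates, binders ≥3 barcodes per replicate, and a 10^−6 pseudocount was added; the two replicates were pooled.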

Binder	median log2 fold change
B1	0.173
B2	0.16
B3	-0.0191
B4	0.162
B5	0.306
B6	-0.66
B7	-0.0929
B8	-0.029
B9	0.203
B10	-0.216
B11	-0.129
B12	-0.188
B13	0.284
B14	0.219
B15	0.0743
B16	-0.0975
B17	0.236
B18	0.237
B19	-0.138
B20	0.333
B21	0.124
B22	-0.271
B23	0.147
B24	0.211
B25	0.197
B26	0.434
B27	0.146
B28	-0.123
B29	-0.0437
